Measurements: patent US11969423B2, “Compounds” (GLAXOSMITHKLINE INTELLECTUAL PROPERTY DEVELOPMENT LIMITED, priority 2017, dated 2024)

These molecules were tested on Mycobacterium tuberculosis H37Rv in human macrophages THP-1 (assay: Mycobacterium tuberculosis H37Rv in human macrophages THP-1 inhibition assay (intracellular assay)). Conditions: Mycobacterium tuberculosis, H37RV, THP-1, intracellular, THP-1 macrophages, without the presence of ethionamide.
In the case of `O=C(CCC(F)(F)F)N1CCC(c2cnc(F)c(F)c2)CC1` [Example 23, 1-(4-(5,6-difluoropyridin-3-yl)piperidin-1-yl)-4,4,4-trifluorobutan-1-one], the IC50 is reported as < 50 nM.
Work on `O=C(CCC(F)(F)F)N1CCC(c2cccc(C(F)(F)F)n2)CC1` [Example 8, 4,4,4-trifluoro-1-[4-[6-(trifluoromethyl)-2-pyridyl]-1-piperidyl]butan-1-one] yielded an IC50 of 50 to 250 nM.
Molecule `O=C(CCC(F)(F)F)N1CCC(c2cncc(Cl)n2)CC1` [Example 32, 1-(4-(6-chloropyrazin-2-yl)piperidin-1-yl)-4,4,4-trifluorobutan-1-one] has an IC50 of 40 nM.
`O=C(CCC(F)(F)F)N1CCC(c2cncc(Cl)c2)C1` (stereo not shown) [Example 38, 1-(3-(5-chloropyridin-3-yl)pyrrolidin-1-yl)-4,4,4-trifluorobutan-1-one] showed an IC50 of 1260 nM.
For `O=C(CCC(F)(F)F)N1CCC(c2ncc(F)cc2F)CC1` [Example 13, 1-[4-(3,5-difluoro-2-pyridyl)-1-piperidyl]-4,4,4-trifluoro-butan-1-one], the IC50 was 50 to 250 nM.
`COc1ccc(C2CCN(C(=O)CCC(F)(F)F)CC2)cn1` [Example 10, 4,4,4-trifluoro-1-[4-(6-methoxy-3-pyridyl)-1-piperidyl]butan-1-one] gave an IC50 of 50 to 250 nM.
`O=C(CCC(F)(F)F)N1CCC(c2cncc(C(F)(F)F)n2)CC1` [Example 24, 4,4,4-trifluoro-1-(4-(6-(trifluoromethyl)pyrazin-2-yl)piperidin-1-yl)butan-1-one] gave an IC50 of 50 to 250 nM.
In the case of `O=C(CCC(F)(F)F)N1CCC(c2ccc(F)cn2)CC1` [Example 17, 4,4,4-trifluoro-1-[4-(5-fluoro-2-pyridyl)-1-piperidyl]butan-1-one], the IC50 is reported as 50 to 250 nM.
`O=C(CCC(F)(F)F)N1CCC(c2ccnc(F)c2)CC1` [Example 20, 4,4,4-trifluoro-1-(4-(2-fluoropyridin-4-yl)piperidin-1-yl)butan-1-one] gave an IC50 of 30 nM.
`O=C(CCC(F)(F)F)N1CCC(c2cccc(Cl)n2)CC1` [Example 27, 1-(4-(6-chloropyridin-2-yl)piperidin-1-yl)-4,4,4-trifluorobutan-1-one] was tested, and the IC50 was 50 to 250 nM.
Molecule `O=C(CCCC(F)(F)F)N1CCC(c2cncc(Cl)c2)CC1` [Example 31, 1-(4-(5-chloropyridin-3-yl)piperidin-1-yl)-5,5,5-trifluoropentan-1-one] has an IC50 of 50 to 250 nM.
For `O=C(CCC(F)(F)F)N1CCC(F)(c2ccccn2)CC1` [Example 33, 4,4,4-trifluoro-1-(4-fluoro-4-(pyridin-2-yl)piperidin-1-yl)butan-1-one], the IC50 was < 50 nM.
`O=C(CCC(F)(F)F)N1CCC(c2cccnc2C(F)(F)F)CC1` [Example 11, 4,4,4-trifluoro-1-[4-[2-(trifluoromethyl)-3-pyridyl]-1-piperidyl]butan-1-one] gave an IC50 of 1000 to 10000 nM.
With `O=C(CCC(F)(F)F)N1CCC(c2cccc(F)n2)CC1` [Example 9, 4,4,4-trifluoro-1-[4-(6-fluoro-2-pyridyl)-1-piperidyl]butan-1-one] the IC50 was 50 to 250 nM.
With `O=C(CCC(F)(F)F)N1CCC(c2ccc(C(F)(F)F)nc2)CC1` [Example 5, 4,4,4-trifluoro-1-[4-[6-(trifluoromethyl)-3-pyridyl]-1-piperidyl]butan-1-one] the IC50 was 1000 to 10000 nM.
For `O=C(CCC(F)(F)F)N1CCC(F)(c2cncc(C(F)(F)F)c2)CC1` [Example 34, 4,4,4-trifluoro-1-(4-fluoro-4-(5-(trifluoromethyl)pyridin-3-yl)piperidin-1-yl)butan-1-one], the IC50 was < 50 nM.
With `O=C(CCC(F)(F)F)N1CCC(F)(c2cccnc2)CC1` [Example 2, 4,4,4-trifluoro-1-[4-fluoro-4-(3-pyridyl)-1-piperidyl]butan-1-one] the IC50 was < 50 nM.
`O=C(CCC(F)(F)F)N1CCC(c2ccc(F)nc2)CC1` [Example 4, 4,4,4-trifluoro-1-[4-(6-fluoro-3-pyridyl)-1-piperidyl]butan-1-one] was tested, and the IC50 was 50 to 250 nM.
Work on `O=C(CCC(F)(F)F)N1CCC(c2ccncc2F)CC1` [Example 26, 4,4,4-trifluoro-1-(4-(3-fluoropyridin-4-yl)piperidin-1-yl)butan-1-one] yielded an IC50 of 50 to 250 nM.
`COc1cncc(C2CCN(C(=O)CCC(F)(F)F)CC2)c1` [Example 12, 4,4,4-trifluoro-1-[4-(5-methoxy-3-pyridyl)-1-piperidyl]butan-1-one] was tested, and the IC50 was 50 to 250 nM.
`O=C(CCC(F)(F)F)N1CCC(c2cc(C(F)(F)F)ccn2)CC1` [Example 6, 4,4,4-trifluoro-1-[4-[4-(trifluoromethyl)-2-pyridyl]-1-piperidyl]butan-1-one] gave an IC50 of 50 to 250 nM.
In the case of `O=C(CCC(F)(F)F)N1CCC(c2cncc(F)c2)CC1` [Example 3, 4,4,4-trifluoro-1-[4-(5-fluoro-3-pyridyl)-1-piperidyl]butan-1-one], the IC50 is reported as 50 to 250 nM.

Same assay, conditions: intracellular, THP-1 macrophages, without the presence of ethionamide
`O=C(CCC(F)(F)F)N1CCC(c2cncc(Cl)n2)CC1` [Example 32, 1-(4-(6-chloropyrazin-2-yl)piperidin-1-yl)-4,4,4-trifluorobutan-1-one] was tested, and the IC50 was < 50 nM.
`O=C(CCC(F)(F)F)N1CCC(c2cncc(Cl)c2)C1` (stereo not shown) [Example 38, 1-(3-(5-chloropyridin-3-yl)pyrrolidin-1-yl)-4,4,4-trifluorobutan-1-one] was tested, and the IC50 was 1000 to 10000 nM.
In the case of `O=C(CCC(F)(F)F)N1CCC(c2ccnc(F)c2)CC1` [Example 20, 4,4,4-trifluoro-1-(4-(2-fluoropyridin-4-yl)piperidin-1-yl)butan-1-one], the IC50 is reported as < 50 nM.
